Reference: PubChem BioAssay AID686978 (National Center for Advancing Translational Sciences (NCATS), 2013)
Screen size: about 420,000 compounds; about 64,000 (15%) were called active. The shares of active, inactive and inconclusive entries below differ from those in the screen. Calls come from the whole dose curve; as a rule, active = well fitted inhibition curve with a large enough effect; inconclusive = small, poorly fitted or top-dose-only effect; inactive = flat fitted curve, though single readings scatter. No potency is given beside an inconclusive call; the fits are too rough.

assay: qHTS for Inhibitors of human tyrosyl-DNA phosphodiesterase 1 (TDP1): qHTS in cells in absence of CPT; details: DT40 Tdp1-/- hTDP1 cells, no CPT, ATP luminescence, 48 h; activity change, negative = growth inhibition: at 46.2 µM (top of the series); note: nearly all actives have a fitted effect of over 55% in size
How it was run: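 Compound effects on proliferation are scored in DT40 Tdp1-/-;hTDP1 cells in the absence of CPT. ATP levels (CellTiter-Glo luminescence) are recorded after a ≥48 hr, 37 °C incubation.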
% is set by controls: 0 for no effect and ±100 for the full control effect; potency is the fitted concentration of half-maximal effect; tags give direction and shape of the fitted curve.

Row | Structure (SMILES) | Potency | activity change, negative = growth inhibition
1 | Clc1ccccc1CN1CCC(Cc2ccccc2)CC1 | inconclusive [inhibitor, partial curve] | 
2 | CCCOc1ccc(C(=O)OCCN(CC)CC)cc1N | inactive | 
3 | CC(C)(C)c1ccc(-c2ncccc2O)cc1 |  | inconclusive: -31% [inhibitor]
4 | Cn1c(=O)c2c(nc(CN3CCC(C(N)=O)CC3)n2CCCc2ccccc2)n(C)c1=O | inconclusive [inhibitor, single point] | 
5 | COc1ccc(CCNC(=O)c2ccc3c(c2)CCN3S(=O)(=O)c2ccc(C)cc2)cc1 | active: 10.3 µM | 
6 | Fc1ccc(CNC(=S)NCc2cccc(Cl)c2)cc1 | inconclusive [inhibitor, single point] | 
7 | O=C1c2ccccc2C(O)(c2ccccc2)N1CCc1ccccc1 (configuration not stated) | inconclusive [inhibitor, single point] | 
8 | CC(C)(C)OC(=O)N1CCC(c2c(C(=O)NC3CCN(Cc4ccccc4)CC3)cnn2-c2ccc(F)cc2F)CC1 | active: 8.2 µM | 
9 | CN1CCN(/N=C/c2ccc(N(c3ccccc3)c3ccccc3)cc2)CC1 | inconclusive [inhibitor, single point] | 
10 | CC(=O)N1c2ccc(S(=O)(=O)N3CCC(C(=O)NC4CCCCC4C)CC3)cc2CC1C (configuration not stated) | inconclusive [inhibitor, single point] | 
11 | COc1ccc2[nH]c(=O)c(CN(Cc3cccs3)Cc3nnnn3Cc3ccccc3)cc2c1 | inconclusive [inhibitor, single point] | 
12 | OC[C@@H]1CN(Cc2cccc(C(F)(F)F)c2)C[C@H](n2cnc3c(NCc4ccco4)ncnc32)O1 | inconclusive [inhibitor, single point] | 
13 | CCOCCn1c(=NC(=O)CSCC(=O)Nc2cc(C)on2)sc2cc(OC)ccc21 | inactive | 
14 | COc1ccc(CNC2CCCCC2C)c(OC)c1 (configuration not stated) | inconclusive [inhibitor, single point] | 
15 | O=C(CCN1CCOCC1)c1ccc(N2CCCCC2)cc1 | active: 4.11 µM | 
16 | NC(=O)N/N=C/c1sc(N2CCCCC2)nc1-c1cccs1 | inconclusive [inhibitor, single point] | 
17 | CCCCC1=CC2=CC(=O)C(C)(OC(=O)CC)C(=O)C2=CN1CCc1ccc(Br)cc1 (configuration not stated) | inconclusive [inhibitor, single point] | 
18 | COC(=O)c1cc(CNC(=O)c2cccc(Cl)c2)ccc1OC | inconclusive [inhibitor, partial curve] | 
19 | CC(=O)N(c1ccccc1)C1CC(C)N(C(=O)c2ccccc2)c2ccccc21 (configuration not stated) | active: 7.31 µM | 
20 | COc1ccccc1CCNC(=O)C(=O)NCC(c1cccs1)S(=O)(=O)c1cccs1 (configuration not stated) | inconclusive [inhibitor, single point] | 
21 | O=C(CS(=O)(=O)c1ccc(C(F)(F)F)cn1)NNC(=O)c1ccccc1 | inactive | 
22 | Cc1ccc(C)c(NC(=O)CSc2nnc(CSc3nc(C)cc(C)n3)n2Cc2ccco2)c1 | inconclusive [inhibitor, single point] | 
23 | CCC(c1nnnn1C1CCCC1)N1CCN(c2ccccc2)CC1 (configuration not stated) | inconclusive [inhibitor, single point] | 
24 | CCN(CC)C(=O)c1[nH]cnc1C(=O)Nc1ccc(Cl)cc1 | inactive | 

Row | Structure (SMILES) | Potency | activity change, negative = growth inhibition
25 | CC(C)=C(C)c1cc2nc(NCCCN(C)C)n(C)c(=O)c2s1 | inactive | 
26 | Cc1noc(C)c1C(=O)OC(C)C(=O)Nc1ccc(S(=O)(=O)NC(C)C)cc1 (configuration not stated) | inconclusive [inhibitor, single point] | 
27 | O=C(NCCc1ccccn1)c1nc(Cn2cc([N+](=O)[O-])cn2)no1 | inactive | 
28 | Cc1cc(NC(=O)CCN2CCN(Cc3ccccc3)CC2)ccc1Br | inconclusive [inhibitor, single point] | 
29 | Cc1c(NC(=O)C(C)OC(=O)c2cc(-c3cccc4ccccc34)nc3ccccc23)c(=O)n(-c2ccccc2)n1C (configuration not stated) | inconclusive [inhibitor, partial curve] | 
30 | Cc1ccc(SCC(=O)Nc2ccc(C(=O)Nc3ccc(O)cc3)cc2)cc1 | inactive | 
31 | CCCCCc1c(C)c(C#N)c2nc3ccccc3n2c1-n1ccnc1C | inactive | 
32 | CN(Cc1cccc2ncccc12)C(=O)CC1C(=O)NCCN1Cc1ccc(F)cc1 (configuration not stated) | inactive | 
33 | Cc1cc(C)c2oc(C(=O)Nc3ccc(S(=O)(=O)N4CCCCCC4)cc3)cc(=O)c2c1 | inconclusive [inhibitor, single point] | 
34 | Cc1cccc(NC(=O)c2c(C)cc(C)nc2SCC(=O)c2ccccc2)c1 | active: 16.4 µM | 
35 | CCC[C@H]1COCCS(=O)(=O)N1Cc1ccc(Br)cc1 | active: 11.2 µM | 
36 | Cn1c(SCc2cc(=O)[nH]c3ccccc23)nnc1-c1ccc(Br)cc1 | inconclusive [inhibitor, single point] | 
37 | CCOCCCn1c(=NC(=O)c2cccs2)c(C#N)cc2c(=O)n3cccc(C)c3nc21 | inconclusive [inhibitor, single point] | 
38 | CNc1nc(C)nc(-n2nc(C)cc2C)n1 | inactive | 
39 | CCCCSc1nnc(-c2c[nH]c3ccccc23)n1C | inconclusive [inhibitor, single point] | 
40 | O=C(CC1Sc2ccccc2NC1=O)OCC(=O)N1CCc2ccccc21 (configuration not stated) | inconclusive [inhibitor, single point] | 
41 | CC(C)N1CC(O)=C(c2nc3ccccc3c(=O)[nH]2)C1=N | inconclusive [inhibitor, partial curve, poor fit] | 
42 | O=C(c1ccco1)N1CCN(CC(O)Cn2c3ccccc3c3ccccc32)CC1 (configuration not stated) | inconclusive [inhibitor, partial curve, poor fit] | 
43 | Cc1cccc(N2C(N)=NC(N)=NC23CCCCC3)c1 | active: 11.6 µM | 
44 | CCc1nc2ccccc2c(C(=O)Nc2cc(C)ccc2C)c1C | inconclusive [inhibitor, single point] | 
45 | COc1ccc(C(=O)NC(C)CCCC(C)(C)O)cc1OC1CCN(C(C)=O)CC1 (configuration not stated) | inactive | 
46 | COc1ccc(N(C(=O)CNC(=O)c2ccco2)C(C(=O)NC2CCCC2)c2ccncc2)cc1 (configuration not stated) | inconclusive [inhibitor, single point] | 
47 | OCC1CCCC(n2cnc3c(=S)nc[nH]c32)O1 (configuration not stated) | inactive | 
48 | O=C(Cn1cc2c(n1)CCCC2)Nc1ccccc1Cl | inactive | 

Row | Structure (SMILES) | Potency | activity change, negative = growth inhibition
49 | Cc1nc2ccccc2nc1OCC(=O)Nc1ccc2ccccc2c1 | inconclusive [inhibitor, partial curve] | 
50 | O=C(Nc1ccc(S(=O)(=O)N2CCCCC2c2cccnc2)cc1)c1ccc(Br)cc1 (configuration not stated) | active: 9.2 µM | 
51 | CCc1nc(N)c(C#N)c(-c2ccccc2OC)c1C | inactive | 
52 | CCOc1ccccc1N(CC(=O)NCCc1ccc(OC)c(OC)c1)S(=O)(=O)c1ccccc1 | inconclusive [inhibitor, single point] | 
53 | Cc1ccc(C(=O)N/C(=C\c2ccc(-c3ccccc3[N+](=O)[O-])o2)C(=O)NCCCN(C)C)cc1 | active: 5.8 µM | 
54 | Cn1cnnc1SCC(=O)NCCC(c1ccccc1)c1ccccc1 | inconclusive [inhibitor, partial curve] | 
55 | O=C(Cn1ccc2cc(S(=O)(=O)N3CCCCC3)ccc21)NCc1ccccc1F | inconclusive [inhibitor, single point] | 
56 | CCC1=Nc2cc(C(=O)NC3CCC(C)CC3)ccc2Sc2ccc(C)cc21 (configuration not stated) | active: 0.651 µM | 
57 | CC1(C(=O)NCc2ccccc2Br)CCN1Cc1csc2ccccc12 (configuration not stated) | inconclusive [inhibitor, single point] | 
58 | COc1ccc(-c2ccc3c(c2)S(=O)(=O)c2cccc(C(=O)NCCOc4ccccc4)c2C3=O)cc1OC | inconclusive [inhibitor, partial curve] | 
59 | CCN1CCN(CCNC(=O)c2ccc3c(c2)N(Cc2cccc(Cl)c2)C(=O)c2ccccc2S3=O)CC1 (configuration not stated) | inactive | 
60 | COc1ccc(-c2csc(C(O)c3cccnc3)n2)cn1 (configuration not stated) | inconclusive [inhibitor, single point] | 
61 | CCOC(=O)c1[nH]c2ccc(OC)cc2c1NC(=O)NC(C)C | inactive | 
62 | O=C(Nc1cccc(Cl)c1)Nc1cc(S(=O)(=O)N2CCOCC2)ccc1N1CCCC1 | active: 23.1 µM | 
63 | O=C(C1CCCN(S(=O)(=O)c2cccc3nsnc23)C1)N1CCN(c2ccccc2F)CC1 (configuration not stated) | active: 14.6 µM | 
64 | COC(=O)c1ccc(CN2C(=O)NC3(CCC(C)CC3)C2=O)cc1 (configuration not stated) | inactive | 
65 | CCN(CC(=O)NCc1ccc(F)cc1)S(=O)(=O)c1ccc(Cl)s1 | inactive | 
66 | Cc1ccc(-c2c(CC(=O)O)c(C)nc3sc4c(c23)CCCC4)cc1 | inactive | 
67 | O=C(CSc1ncnc2ccccc12)Nc1ccc2c(c1)OCO2 | inconclusive [inhibitor, single point] | 
68 | CC(C)c1ccc(NC(=O)c2ccc(F)c(S(=O)(=O)N3CCc4ccccc43)c2)cc1 | active: 7.31 µM | 
69 | O=C(NCc1ccc(F)cc1)c1cc(C2CCCCN2C(=O)c2ccccc2)on1 (configuration not stated) | inconclusive [inhibitor, single point] | 
70 | COc1ccccc1NC(=O)c1sc2nc(C)c(C(=O)Nc3ccc(C)cc3C)c(-c3ccco3)c2c1N | inconclusive [inhibitor, single point] | 
71 | CCc1c(C)nc(N2CCN(c3cccc(OC)c3)CC2)[nH]c1=O | inconclusive [inhibitor, single point] | 
72 | COc1ccccc1CNC(=O)c1cc2sccc2n1Cc1ccc(Cl)cc1 | inconclusive [inhibitor, partial curve] | 
